# A collection of fitness landscapes (doi:10.1126/science.1257360)
# The list shows a part of the results.
# B1: PhoQ; a variant is named by its letters at X, in order, P23837 (parent)
# chain: MKKLLRLFFPLSLRVRFLLATAAVVLVLSLAYGMVALIGYSVSFDKTTFRLLRGESNLFYTLAKWENNKLHVELPENIDKQSPTMTLIYDENGQLLWAQRDVPWLMKMIQPDWLKSNGFHEIEADVNDTSLLLSGDHSIQQQLQEVREDDDDAEMTHSVAVNVYPATSRMPKLTIVVVDTIPVELKSSYMVWSWFIYVLSANLLLVIPLLWVAAWWSLRPIEALAKEVRELEEHNRELLNPATTRELTSLVRNLNRLLKSERERYDKYRTTLTDLTHSLKTPLXXLQXXLRSLRSEKMSVSDAEPVMLEQISRISQQIGYYLHRASMRGGTLLSRELHPVAPLLDNLTSALNKVYQRKGVNISLDISPEISFVGEQNDFVEVMGNVLDNACKYCLEFVEISARQTDEHLYIVVEDDGPGIPLSKREVIFDRGQRVDTLRPGQGVGLAVAREITEQYEGKIVAGESMLGGARMEVIFGRQHSAPKDE
# Variants of: B1
# Experiment: enrichment ratio after two sorts for PhoP signalling (ratio (wild type AVST 3.29)); higher = more functional
# Conditions: with PhoP (E. coli)
row,Variant,enrichment ratio
1,SREA,≤ 0.25
2,DHGQ,≤ 0.25
3,VDMT,≤ 0.25
4,DNNP,≤ 0.25
5,GYLV,≤ 0.25
6,YIMV,0.477
7,RPFE,≤ 0.25
8,WYFG,≤ 0.25
9,WLGY,≤ 0.25
10,WELR,≤ 0.25
11,PVPD,≤ 0.25
12,YGFQ,≤ 0.25
13,ILFQ,≤ 0.25
14,QQSE,≤ 0.25
15,PWMM,≤ 0.25
16,RMFC,≤ 0.25
17,LKPR,≤ 0.25
18,HPEL,≤ 0.25
19,MGSK,≤ 0.25
20,SPNL,≤ 0.25
21,DNDC,≤ 0.25
22,ESKS,≤ 0.25
23,IPRP,≤ 0.25
24,NVAS,≤ 0.25
25,RAKA,≤ 0.25
26,SHMW,0.684

row,Variant,enrichment ratio
1,MGRD,≤ 0.25
2,PFEN,≤ 0.25
3,ELSQ,≤ 0.25
4,STEH,≤ 0.25
5,YDVE,≤ 0.25
6,PYIG,≤ 0.25
7,SRRA,≤ 0.25
8,SFHK,≤ 0.25
9,EWAI,≤ 0.25
10,RHNN,≤ 0.25
11,PHMW,≤ 0.25
12,DLKY,≤ 0.25
13,EAAQ,≤ 0.25
14,WYLG,≤ 0.25
15,LARE,≤ 0.25
16,PGRE,≤ 0.25
17,WTWP,≤ 0.25
18,NQAI,≤ 0.25
19,GIRC,≤ 0.25
20,VKWT,≤ 0.25
21,THCW,≤ 0.25
22,ETDE,≤ 0.25
23,GTSW,≤ 0.25
24,DAWE,≤ 0.25
25,HLLD,≤ 0.25
26,TDRY,≤ 0.25

row,Variant,enrichment ratio
1,LFRM,≤ 0.25
2,VVLR,≤ 0.25
3,VMVP,≤ 0.25
4,ISDM,≤ 0.25
5,QSFH,4.49
6,QCSC,≤ 0.25
7,PCCE,≤ 0.25
8,AKQC,≤ 0.25
9,PNAY,≤ 0.25
10,HFSP,≤ 0.25
11,ASQL,7.7
12,GQQF,≤ 0.25
13,APGV,≤ 0.25
14,SPNG,≤ 0.25
15,YYDM,≤ 0.25
16,VYQV,≤ 0.25
17,EFCN,≤ 0.25
18,MNGP,≤ 0.25
19,NYCS,≤ 0.25
20,THKS,≤ 0.25
21,TLGV,5.9
22,LQMW,≤ 0.25
23,LRYG,≤ 0.25
24,LKRH,≤ 0.25
25,RNFH,≤ 0.25
26,WNSF,≤ 0.25

row,Variant,enrichment ratio
1,YTNI,≤ 0.25
2,KSYC,≤ 0.25
3,YPTL,≤ 0.25
4,ANTN,0.26
5,KDRK,≤ 0.25
6,ADVD,≤ 0.25
7,PHLS,≤ 0.25
8,HITM,≤ 0.25
9,TRSA,≤ 0.25
10,TSFV,0.503
11,LVVN,≤ 0.25
12,QDVQ,≤ 0.25
13,HQGC,≤ 0.25
14,PLTG,≤ 0.25
15,NGCT,≤ 0.25
16,GHLV,≤ 0.25
17,MKIP,≤ 0.25
18,WFYG,≤ 0.25
19,GKKL,≤ 0.25
20,MCLK,8.35
21,FDFW,≤ 0.25
22,MGHF,0.887
23,NVIK,≤ 0.25
24,FWCD,≤ 0.25
25,QHHG,≤ 0.25
26,EFMV,≤ 0.25

row,Variant,enrichment ratio
1,RVYQ,≤ 0.25
2,PPCS,≤ 0.25
3,SVAG,9.11
4,DKMS,≤ 0.25
5,LGVA,≤ 0.25
6,FPYQ,≤ 0.25
7,SDCQ,7.71
8,DYKS,≤ 0.25
9,SYKQ,≤ 0.25
10,AMVN,1.14
11,DDIT,≤ 0.25
12,TFAM,18.6
13,RDNE,≤ 0.25
14,QCGP,≤ 0.25
15,VKYD,≤ 0.25
16,EIHL,≤ 0.25
17,YMRV,≤ 0.25
18,IKGT,≤ 0.25
19,QTFE,≤ 0.25
20,QSTM,5.74
21,LCFQ,≤ 0.25
22,AFPE,≤ 0.25
23,YMEN,≤ 0.25
24,FKMT,≤ 0.25
25,HDYP,≤ 0.25
26,GGNI,≤ 0.25

row,Variant,enrichment ratio
1,GIHH,≤ 0.25
2,WDEV,≤ 0.25
3,MHME,≤ 0.25
4,TRGS,≤ 0.25
5,HLTL,0.545
6,SWVK,≤ 0.25
7,DDKY,≤ 0.25
8,FLFQ,≤ 0.25
9,YFIH,≤ 0.25
10,DGCQ,≤ 0.25
11,YSYR,≤ 0.25
12,QRVR,≤ 0.25
13,NDQT,≤ 0.25
14,SRAF,≤ 0.25
15,MMRY,≤ 0.25
16,AINV,≤ 0.25
17,GWSH,≤ 0.25
18,RLPF,≤ 0.25
19,AFIP,≤ 0.25
20,YLEI,≤ 0.25
21,PYLF,≤ 0.25
22,IEWV,≤ 0.25
23,VGTW,≤ 0.25
